Laboratory results from patent US12285407B2, “Bis-indolylmethane derivatives and uses thereof” (The University of The West Indies, priority 2018, dated 2025).
Read-outs that look alike come from different tables or passages of the source.

What was measured:
[1] = system: MRSA; assay: Adjuvant broth microdilution (antibiotic MIC with SP-BIM at 50 μg/mL); type: cell-based, Staphylococcus aureus; details: antibiotic alone
[2] = system: Escherichia coli; assay: microbe, parasite or virus in culture; type: cell-based; details: antibiotic alone, Table 6, read-out: MIC of antibiotic, No compound
[3] = system: Klebsiella pneumoniae; assay: Adjuvant broth microdilution (antibiotic MIC with SP-BIM at 50 μg/mL); type: cell-based; details: Klebsiella pneumonia, antibiotic alone
[4] = system: Enterobacter cloacae; assay: as above; type: cell-based; details: antibiotic alone
[5] = system: Staphylococcus aureus; assay: Checkerboard synergy (FICI) of antibiotics with SP-BIM; type: cell-based; details: for MIC: 24 h, antibiotic alone, read-out: MIC antibiotic only
[6] = system: Streptococcus pneumoniae; assay: as above; type: cell-based; details: for MIC: 24 h, antibiotic alone, read-out: MIC antibiotic only
[7] = system: Bacillus cereus; assay: as above; type: cell-based; details: for MIC: 24 h, antibiotic alone, read-out: MIC antibiotic only
[8] = system: Enterococcus faecium; assay: as above; type: cell-based
[9] = system: Klebsiella pneumoniae; assay: as above; type: cell-based; details: for MIC: 24 h, antibiotic alone, read-out: MIC antibiotic only
[10] = system: Escherichia coli; assay: as above; design: MIC in combination: Antibiotic: unit not given beside the values; details: for MIC: 24 h
[11] = system: Candida albicans; assay: as above; design: MIC in combination: Antibiotic: unit not given beside the values
[12] = SP-BIM 9 in combination with the labelled antibiotic
[13] = SP-BIM 13 in combination with the labelled antibiotic
[14] = antibiotic in combination with SP-BIM 9
[15] = antibiotic in combination with SP-BIM 13
[16] = Streptococcus pneumonia (title: Streptococcus pyogenes), antibiotic + SP-BIM 9
[17] = Streptococcus pneumoniae, antibiotic + SP-BIM 13
[18] = MIC of the antibiotic in combination with SP-BIM 13

SMILES: NC[C@H]1O[C@H](O[C@H]2[C@H](O)[C@@H](O[C@H]3O[C@H](CO)[C@@H](O)[C@H](N)[C@H]3O)[C@H](N)C[C@@H]2N)[C@H](O)[C@@H](O)[C@@H]1O [Kanamycin, kanamycin]
- MIC ([1]; Staphylococcus aureus, Table 4, read-out: MIC of antibiotic, No compound): 16 µg/mL
- MIC of antibiotic, No Compound ([1]; Table 8 (series SP-BIMs 21-29)): 8 µg/mL
- MIC [2]: 32 µg/mL
- MIC of antibiotic, No Compound [3]: >250 µg/mL
- MIC of antibiotic, No Compound [4]: 4 µg/mL
- MIC ([5]; SP-BIM 9 checkerboard): 4 µg/mL
- MIC ([5]; SP-BIM 13 checkerboard): 4 µg/mL
- FIC of SP-BIM 9 [5, 12]: 0.02
- FIC of SP-BIM 13 [5, 13]: 0.3
- Interpretation ([5]; antibiotic + SP-BIM 9): Synergy (Synergy: FICI≤0.5)
- Σ FIC ([5]; antibiotic + SP-BIM 9): ≤0.27
- Interpretation ([5]; antibiotic + SP-BIM 13): Synergy (Synergy: FICI≤0.5)
- Σ FIC ([5]; antibiotic + SP-BIM 13): 0.3
- MIC in combination, Antibiotic [5, 14]: 1.0 µg/mL
- MIC in combination, Antibiotic [5, 15]: 0.25 µg/mL
- FIC of antibiotic ([5]; in combination with SP-BIM 9): 0.25
- FIC of antibiotic ([5]; in combination with SP-BIM 13): 0.1
- FIC of SP-BIM 9 ([6]; Streptococcus pneumonia (title: Streptococcus pyogenes), SP-BIM 9 in combination with the labelled antibiotic): 0.03
- Interpretation [6, 16]: Synergy (Synergy: FICI≤0.5)
- Σ FIC [6, 16]: <0.16
- MIC in combination, Antibiotic ([6]; Streptococcus pneumonia (title: Streptococcus pyogenes), antibiotic in combination with SP-BIM 9): 4 µg/mL
- FIC of antibiotic ([6]; Streptococcus pneumonia (title: Streptococcus pyogenes), in combination with SP-BIM 9): 0.13
- MIC ([6]; Streptococcus pneumoniae, Streptococcus pneumonia (title: Streptococcus pyogenes), SP-BIM 9 checkerboard): 32 µg/mL
- MIC ([6]; Streptococcus pneumoniae, Streptococcus pneumoniae, SP-BIM 13 checkerboard): 32 µg/mL
- FIC of SP-BIM 13 ([6]; Streptococcus pneumoniae, SP-BIM 13 in combination with the labelled antibiotic): 0.3
- Interpretation [6, 17]: Synergy (Synergy: FICI≤0.5)
- Σ FIC [6, 17]: <0.3
- MIC in combination, Antibiotic ([6]; Streptococcus pneumoniae, antibiotic in combination with SP-BIM 13): 0.5 µg/mL
- FIC of antibiotic ([6]; Streptococcus pneumoniae, in combination with SP-BIM 13): 0.0
- MIC ([7]; SP-BIM 9 checkerboard): 2 µg/mL
- MIC ([7]; SP-BIM 13 checkerboard): 2 µg/mL
- MIC in combination, SP-BIM 9 ([7]; SP-BIM 9 concentration in combination with the labelled antibiotic): 8 µg/mL
- FIC of SP-BIM 9 [7, 12]: 0.032
- FIC of SP-BIM 13 [7, 13]: 0.5
- Interpretation ([7]; antibiotic + SP-BIM 9): Synergy (Synergy: FICI≤0.5)
- Σ FIC ([7]; antibiotic + SP-BIM 9): <0.5
- Interpretation ([7]; antibiotic + SP-BIM 13): Additive (Additive: FICI>0.5-1.0)
- Σ FIC ([7]; antibiotic + SP-BIM 13): 0.6
- MIC in combination, Antibiotic [7, 14]: 1 µg/mL
- MIC in combination, Antibiotic [7, 15]: 0.25 µg/mL
- FIC of antibiotic ([7]; in combination with SP-BIM 9): 0.5
- FIC of antibiotic ([7]; in combination with SP-BIM 13): 0.13
- FIC of SP-BIM 13 [8, 13]: 0.3
- Interpretation ([8]; antibiotic + SP-BIM 13): Synergy (Synergy: FICI≤0.5)
- Σ FIC ([8]; antibiotic + SP-BIM 13): <0.3
- MIC in combination, Antibiotic [8, 15]: 4 µg/mL
- FIC of antibiotic ([8]; in combination with SP-BIM 13): 0.0
- MIC ([9]; SP-BIM 9 checkerboard): 4 µg/mL
- MIC ([9]; SP-BIM 13 checkerboard): 4 µg/mL
- FIC of SP-BIM 9 [9, 12]: 1
- FIC of SP-BIM 13 [9, 13]: 1.0
- Interpretation ([9]; antibiotic + SP-BIM 9): Indifferent (Indifferent: FICI>1.0-4.0)
- Σ FIC ([9]; antibiotic + SP-BIM 9): <1.3
- Interpretation ([9]; antibiotic + SP-BIM 13): Indifferent (Indifferent: FICI>1.0-4.0)
- Σ FIC ([9]; antibiotic + SP-BIM 13): <1.5
- MIC in combination, Antibiotic [9, 14]: 1 µg/mL
- MIC in combination, Antibiotic [9, 15]: 2 µg/mL
- FIC of antibiotic ([9]; in combination with SP-BIM 9): 0.25
- FIC of antibiotic ([9]; in combination with SP-BIM 13): 0.5
- MIC ([10]; read-out: MIC antibiotic only, Escherichia coli, antibiotic alone): 32 µg/mL
- MIC ([10]; read-out: MIC antibiotic only, Escherichia coli, antibiotic alone, SP-BIM 9 checkerboard): 32 µg/mL
- MIC in combination: Antibiotic [10, 18]: 4
- FIC of SP-BIM 9 [10, 12]: 0.032
- FIC of SP-BIM 13 [10, 13]: 0.1
- Interpretation ([10]; antibiotic + SP-BIM 9): Synergy (Synergy: FICI≤0.5)
- Σ FIC ([10]; antibiotic + SP-BIM 9): <0.1
- Interpretation ([10]; antibiotic + SP-BIM 13): Synergy (Synergy: FICI≤0.5)
- Σ FIC ([10]; antibiotic + SP-BIM 13): <0.3
- MIC in combination, Antibiotic [10, 14]: 2 µg/mL
- FIC of antibiotic ([10]; combination with SP-BIM 13): 0.1
- FIC of antibiotic ([10]; in combination with SP-BIM 9): 0.0625
- MIC in combination: Antibiotic [11, 18]: 4
- FIC of SP-BIM 13 [11, 13]: 0.3
- Interpretation ([11]; antibiotic + SP-BIM 13): Synergy (Synergy: FICI≤0.5)
- Σ FIC ([11]; antibiotic + SP-BIM 13): <0.3
- FIC of antibiotic ([11]; combination with SP-BIM 13): 0.0
